Experimental data reported in PubChem BioAssay AID1240 (Sanford-Burnham Center for Chemical Genomics, 2008).
Out of some 50,000 compounds screened, about 800 (1.6%) showed an effect of 50% or more. This is one part of the list.

Each compound was assayed against Bcl-2-like protein 10 (Homo sapiens) (UniProt Q9HD36) (assay: Phenotype converters, Bcl-B/TR3 peptide binding displacement, primary biochemical FP (AID 1240;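 also: 0% = Bcl-B with tracer peptide and DMSO and 100% = tracer peptide lacking Bcl-B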)). Settings: GST-Bcl-B / FITC-TR3 peptide fluorescence polarization; stronger effect = higher value; compound at 3.75 mg/L.
UniProt Q9HD36, sequence (Q9HD36 whole entry, looked up): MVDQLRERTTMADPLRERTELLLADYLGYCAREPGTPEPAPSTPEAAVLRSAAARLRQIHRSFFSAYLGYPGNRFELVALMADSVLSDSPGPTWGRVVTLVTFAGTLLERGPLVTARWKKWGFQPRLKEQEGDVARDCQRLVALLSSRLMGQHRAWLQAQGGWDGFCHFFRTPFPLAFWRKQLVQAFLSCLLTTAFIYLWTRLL

Row | SMILES | displacement [%]
1 | COc1cc2nc(-c3ccc(Oc4cccc(-c5nc6cc(OC)c(OC)cc6c(=O)o5)c4)cc3)oc(=O)c2cc1OC | 9.6
2 | O=C(CC(Nc1ccc2ncccc2c1)c1ccccc1)c1ccccc1 (stereo not drawn) | 1.1
3 | COc1cc2c(cc1NCc1cccc([N+](=O)[O-])c1)oc1ccccc12 | -6.6
4 | CCN1/C(=C2/OC(=S)N(C)C2=O)C=Cc2cc(C)ccc21 | -1.6
5 | O=C1NC(=S)N(c2ccc(Cl)c(Cl)c2)C(=O)/C1=C/c1cccs1 | -1.1
6 | COc1cc(NC(=O)CC(c2ccccc2)c2ccccc2)c(OC)cc1Cl | 7.4
7 | COc1cc(OC)c(C2SCCN2S(=O)(=O)c2ccc3ccccc3c2)cc1OC (stereo not drawn) | 4.2
8 | CCCN1C(=O)c2ccccc2NC1c1ccc(Cl)c(Cl)c1 (stereo not drawn) | -1.1
9 | O=C(O)C(Cc1c[nH]c2ccccc12)NS(=O)(=O)c1ccccc1[N+](=O)[O-] (stereo not drawn) | 12.2
10 | CC(=O)c1ccc(OC(C)C)c(CSc2nc(O)cc(=O)[nH]2)c1 | -3.9
11 | CC1(C)CC(NC(=O)C(=O)Nc2ccc(Cl)cc2)CC(C)(C)N1 | 1
12 | O=[N+]([O-])c1cccc(S(=O)(=O)NCc2ccccc2Cl)c1 | 7.9
13 | CC(=O)NC12CC3CCC(CC(C3)C1)C2 | 10.9
14 | NC(=S)NN=C1c2cc(S(=O)(=O)NCc3ccco3)ccc2-c2ccc(S(=O)(=O)NCc3ccco3)cc21 | -11.2
15 | CCCCNC(=O)/C(=C/c1ccccc1)NC(=O)c1ccc(OC)cc1 | 10.3
16 | C/C(=N\Nc1nc(C)cc(C)n1)c1ccccc1O | 0.1
17 | CCOC(=O)c1c(CN(CCO)CCO)n(C)c2c1cc(OC(C)=O)c1c2c(-c2ccccc2)nn1-c1ccccc1 | 10.8
18 | CC1CCc2c(sc(NC(=O)C(C(C)C)N3C(=O)c4ccccc4C3=O)c2C(N)=O)C1 (stereo not drawn) | -11.9
19 | CCOC(=O)c1c[nH]c2c(Cl)ccc(Cl)c2c1=O | -2.4
20 | O=C(/C=C/c1cc2c(cc1[N+](=O)[O-])OCCO2)c1c(-c2ccccc2)c2cc(Cl)ccc2[nH]c1=O | 31.3
21 | O=C(Nc1ccc(F)cc1)C1C(c2ccccc2)C1(Cl)Cl (stereo not drawn) | 1.9
22 | Cc1cc(C)c(NC(=O)C2CCCN2Cc2ccccc2)c(C)c1 (stereo not drawn) | 0.7
23 | COc1ccccc1Nc1nc(C)c([N+](=O)[O-])c(Nc2ccccc2)n1 | -5.3
24 | COc1ccc(C(=O)N2CCN(Cc3ccc(C)cc3)CC2)cc1OC | -21.7
25 | COc1cccc(/C=C(\C#N)c2nc(-c3ccc(Br)cc3)cs2)c1 | -7.3
26 | Cc1ccc(C2Nc3cccc4cccc(c34)N2)cc1 | 15.4
27 | CCOc1ccccc1NC(=O)c1ccc(N(C)S(=O)(=O)c2ccccc2)cc1 | 6.5
28 | Cc1nc2c(CN(C)C)c(O)ccc2[nH]1 | -9.7
